Experimental data as given in PubChem BioAssay AID504832 (National Center for Advancing Translational Sciences (NCATS), 2011).
Screen size: about 310,000 compounds; about 18,000 (5.8%) were called active. The inconclusive results got no clear call from the source; some entries with a clear call stand among them for comparison. Calls follow the shape of the dose curve; as a rule, active = well fitted inhibition curve with a large enough effect; inconclusive = small, poorly fitted or top-dose-only effect, or another doubt; inactive = no such curve, though single readings can be large or run the other way. Potencies of inconclusive entries are left out as doubtful fits.

Experiment: Primary qHTS for delayed death inhibitors of the malarial parasite plastid, 48 hour incubation
Conditions: P. falciparum luciferase growth in erythrocytes; series mostly up to 28.7 µM
Outline: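 First compound was added to culture medium, then infected red cells at 0.1% parasitemia and 2% hematocrit (final). After incubation at 37 C under 5% CO2, luciferase detection reagent was dispensed and light output recorded.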
% is scaled to controls: 0 for no effect and ±100 for the full control effect; potency is read from the fitted curve at half-maximal effect; tags tell the direction and shape of the fitted curve.

SMILES | Potency | activity change, negative = inhibition
CCC(C)(C)NC(=S)Nc1ccccc1C | active: 10.4 µM | 
CCn1cc([N+](=O)[O-])c(C(=O)N2N=C3/C(=C/c4cccs4)CCCC3C2c2cccs2)n1 (stereo not given) | inconclusive [inhibitor, single point] | 
Clc1ccc(Nc2ccc(NCc3ccccc3)nn2)cc1 | active: 4.65 µM | 
Cc1ccc(Sc2c([N+](=O)[O-])c(=O)n(C)c3ccccc23)cc1 | inconclusive [inhibitor, partial curve, poor fit] | 
O=C(Cc1c(Cl)cccc1Cl)Nc1cccnc1 | inconclusive [inhibitor, full curve] | 
O=[N+]([O-])c1ccc(CN2CCN(Cc3c[nH]c4ccccc34)CC2)cc1 | inconclusive [inhibitor, partial curve, poor fit] | 
Cc1ccc(N2C(N)=NC(N)=NC2(C)C)c(C)c1 | inconclusive [inhibitor, full curve] | 
Cc1ccc(C(=O)NCC(=O)OC(C)C(=O)NCCC2=CCCCC2)cc1C (stereo not given) | inactive | 
Cc1cc(OC(=O)c2ccc(C(C)(C)C)cc2)c([N+](=O)[O-])c(=O)[nH]1 | inactive | 
COc1ccccc1CCNC(=O)NC1CCCCC1 | inactive | 
C=CCN1C(=O)c2ccc(C(=O)N3CCN(S(=O)(=O)c4ccc(C(C)C)cc4)CC3)cc2C1=O | inactive | 
COc1ccc(CCN(Cc2ccccn2)C(=S)Nc2ccccc2C)cc1OC | inconclusive [inhibitor, single point] | 
COc1ccc(CC(=O)OC2CCCN(C)C2)cc1 (stereo not given) | inactive | 
O=C(Cn1nnc(-c2ccc(F)cc2)n1)N1CCCCC1 | inactive | 
COc1ccc(C2CCCN2C(=S)Nc2c(C)cccc2C)cc1OC (stereo not given) | inconclusive [inhibitor, single point] | 
Cc1ccccc1NC(=O)CN1C(=O)c2cccnc2Oc2ccc(Cl)cc21 | inconclusive [inhibitor, partial curve] | 
O=C(Nc1cccc(-c2cn3ccccc3n2)c1)C1CC1 | inactive | 
Cc1ccc2cc(CN(C(=O)c3cccnc3)C(C)C)c(=O)[nH]c2c1 | active: 11.7 µM | 
COc1ccc(-c2[nH]n(-c3ccc([N+](=O)[O-])cc3)c(=O)c2C=NCc2ccc(F)cc2)cc1 | inconclusive [inhibitor, partial curve] | 
COc1ccc(Br)cc1CN(C)C(C)C(=O)Nc1cc([N+](=O)[O-])ccc1OC (stereo not given) | inconclusive [inhibitor, single point] | 
N#Cc1c(NCCO)nc(NCc2ccccc2)c2c1CCN(Cc1ccccc1)C2 | inconclusive [inhibitor, single point] | 
COc1c(S(=O)(=O)NCCCn2ccnc2)ccc(Cl)c1Cl | inconclusive [inhibitor, full curve, poor fit] | 
Cc1ccc(NC(=S)NCc2ccc(S(N)(=O)=O)cc2)cc1Cl |  | inactive: -37.4% [at 5.75 µM]
CC1CCC(NC(=O)CN2C(=O)c3cccnc3Oc3ccc(Cl)cc32)CC1 (stereo not given) | inconclusive [inhibitor, partial curve] | 

SMILES | Potency | activity change, negative = inhibition
N#CCC(=O)NC1CCC(CC2CCC(NC(=O)CC#N)CC2)CC1 (stereo not given) | inconclusive [inhibitor, full curve] | 
COc1cc(NC(=O)CN2c3cccc4cccc(c34)S2(=O)=O)cc(OC)c1OC | inactive | 
CCCCC(=O)NC(c1ccccc1)c1ccc2cccnc2c1O (stereo not given) | inconclusive [inhibitor, partial curve, poor fit] | 
O=C(c1ccc([N+](=O)[O-])o1)N1CCOCC1 | inconclusive [inhibitor, single point] | 
O=C(NCC(=O)N1CCCC(C(F)(F)F)C1)c1ccc(Br)o1 (stereo not given) | inactive | 
COc1ccc(-c2ccc(CCC(=O)O)n2CC2CCCO2)cc1 (stereo not given) | inconclusive [inhibitor, single point] | 
NNC(=O)CC(=O)NC1(Cc2ccc(O)cc2)CCCCC1 | inconclusive [inhibitor, partial curve] | 
Cc1onc(C(=O)NCc2ccc(F)cc2)c1[N+](=O)[O-] | inconclusive [inhibitor, single point] | 
Cc1cc(Cl)ccc1Oc1nc(-c2ccc(F)cc2)ccc1C#N | inactive | 
O=C(COc1ccccc1Br)NC1CCCC1 | inactive | 
COc1ccc(N2CCN(CC(O)COC(C)(C)C)CC2)cc1 (stereo not given) | inconclusive [inhibitor, partial curve, poor fit] | 
Cc1nc2ccc(C(=O)OCC(=O)N(C)c3ccccc3)cc2nc1C | inconclusive [inhibitor, single point] | 
S=c1[nH]nc(C2(c3ccccc3)CCCC2)o1 | inactive | 
OCC1(Cc2ccccc2F)CCCN(CCc2ccccc2)C1 (stereo not given) | inconclusive [inhibitor, single point] | 
CCOC(=O)Nc1oc2ccccc2c(=O)c1CN1CCOCC1 | inconclusive [inhibitor, single point] | 
CCN(CC)C(=O)C(Oc1ccc(S(=O)(=O)N2CCCC2)cc1[N+](=O)[O-])c1ccccc1 (stereo not given) | inconclusive [inhibitor, single point] | 
CCCN(CCC)CCCNC(=O)C1CCC(CNS(=O)(=O)c2cccc3nsnc23)CC1 (stereo not given) | inactive | 
Cc1cccc2cc(/C=N/NC(=O)c3ccncc3)c(Cl)nc12 | inconclusive [inhibitor, single point] | 
C[C@H](NC(=O)c1nc[nH]c1C(=O)NCC(=O)OC(C)(C)C)c1ccccc1 | inconclusive [inhibitor, partial curve, poor fit] | 
COc1ccc([C@H]2CC(=O)C=C(c3cccc(Cl)c3)C2)cc1OC | inconclusive [inhibitor, single point] | 
COc1ccccc1C(=O)NCCOc1ccc(C)c(C)c1 | inconclusive [inhibitor, full curve, poor fit] | 
O=C(NC1CC2CCCC(C1)N2S(=O)(=O)c1ccccc1)C1CCCCC1 (stereo not given) | inconclusive [inhibitor, single point] | 
CCN1C(=O)C(=O)N(CC(=O)c2cc(C)n(C3CC3)c2C)C1=O | inactive | 
CCCCn1c(N)c(N(CC(C)C)C(=O)c2ccc(C)c(S(=O)(=O)N3CCCCC3)c2)c(=O)[nH]c1=O | inconclusive [inhibitor, single point] | 

SMILES | Potency | activity change, negative = inhibition
CNCCCC12CCC(c3ccccc31)c1ccccc12 | active: 11.7 µM | 
Cc1cc(NC(=O)Nc2cccc(Cl)c2)n(-c2ccccn2)n1 | inconclusive [inhibitor, single point] | 
O=C(Nc1cccc(C(F)(F)F)c1)n1cc(-c2ccccn2)c(N2CCOCC2)n1 | inconclusive [inhibitor, single point] | 
O=C(O)c1cccc(NC(=O)c2cn(-c3ccccc3)nc2-c2ccncc2)c1 | inconclusive [inhibitor, single point] | 
CCOc1ccc(NC(=O)CCC(=O)NNS(=O)(=O)c2ccccc2[N+](=O)[O-])cc1 | inactive | 
Cc1cc(C)c2c(c1)-c1c(ssc1=S)C(C)(C)N2C(=O)CSc1nncn1C | active: 4.65 µM | 
COc1ccc(-n2nc(C)c3onc(C)c3c2=O)cc1 | inconclusive [inhibitor, single point] | 
COc1ccc(C(=O)NC(=S)NNC(=O)CCc2ccccc2)cc1 | inconclusive [inhibitor, single point] | 
O=C(N/N=C/c1ccccn1)c1ccc(NC(=O)c2ccc(F)cc2)cc1 | inconclusive [inhibitor, partial curve] | 
CCCCCCSc1ccc(-c2nc3ccc(C)cn3c2NCc2ccccc2)cc1OC | active: 5.22 µM | 
CCOc1cc(CNc2ccc(CNc3ncn[nH]3)cc2)ccc1OCc1ccccc1 | inconclusive [inhibitor, single point] | 
CCCc1cc(=O)oc2cc(OCC(=O)N3CCN(Cc4ccc5c(c4)OCO5)CC3)ccc12 | inconclusive [inhibitor, partial curve] | 
COc1cc(-c2nc(C(=O)NCC3CCCO3)cc3c2[nH]c2ccccc23)cc(OC)c1OC (stereo not given) | inconclusive [inhibitor, full curve] | 
CSCCC1NC(=S)N(Cc2ccccc2)C1=O (stereo not given) | inconclusive [inhibitor, single point] | 
Cc1ccc(NC(=O)N2N=C(c3ccc(F)cc3)CC2c2ccc(F)cc2)cc1 (stereo not given) | inconclusive [inhibitor, single point] | 
CN(C(=O)C1CCCN(c2ncnc3c2nc2n3CCCCC2)C1)c1cccc(Cl)c1 (stereo not given) | active: 2.94 µM | 
NCCNc1cccc2ccccc12 | inconclusive [inhibitor, single point] | 
O=c1[nH]n(-c2ccc(Cl)cc2)c(=O)c(Cl)c1Cl | inactive | 
CCOc1ccc(-c2csc(NNC3=NCCCCC3)n2)cc1 | inactive | 
Cc1ccc(C(=O)NC(NC(=O)c2ccc(C)cc2)C(Cl)Cl)cc1 | inconclusive [inhibitor, single point] | 
Cc1cccc(-n2ncc3c2CCCC3NC(=O)Cc2c(C)noc2C)c1C (stereo not given) | inconclusive [inhibitor, single point] | 
Cc1ccccc1Cn1nc(C)c(NC(=O)c2noc3c2CC(C(C)(C)C)CC3)c1C (stereo not given) | inconclusive [inhibitor, single point] | 
